In PubChem BioAssay AID1240 (Sanford-Burnham Center for Chemical Genomics, 2008):
About 800 (1.6%) of roughly 50,000 compounds showed an effect of 50% or more. The list shows a part of the results.

target: Bcl-2-like protein 10 (Homo sapiens) (UniProt Q9HD36); experiment: TR3 peptide-Bcl-B binding displacers, biochemical primary FP assay, phenotype converters (AID 1240); conditions: GST-Bcl-B / FITC-TR3 peptide fluorescence polarization; stronger effect = higher value; compound at 3.75 mg/L;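 note: 0% = Bcl-B with tracer peptide and DMSO and 100% = tracer peptide lacking Bcl-B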
Sequence of UniProt Q9HD36 (Q9HD36 whole entry, looked up): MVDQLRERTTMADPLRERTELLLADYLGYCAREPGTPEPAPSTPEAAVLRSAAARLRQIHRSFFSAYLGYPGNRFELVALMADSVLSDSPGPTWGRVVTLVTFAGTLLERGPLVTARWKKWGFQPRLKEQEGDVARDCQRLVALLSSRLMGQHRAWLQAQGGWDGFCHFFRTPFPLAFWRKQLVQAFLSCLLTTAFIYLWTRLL

Structure (SMILES)	displacement
COc1ccc(NC(=O)CSc2ccncc2)c([N+](=O)[O-])c1	11.4%
COc1ccc(C2NCCc3c2[nH]c2ccccc32)cc1 (configuration not stated)	0.9%
O=C(/C(=C/c1ccccc1[N+](=O)[O-])c1nc2ccccc2[nH]1)c1ccccc1	11.4%
O=C(Cc1ccc([N+](=O)[O-])cc1)N/N=C/c1ccc(OC/C=C/Cl)cc1	-7.4%
CCOC(=O)C1=C(C)N=c2s/c(=C\c3ccc(F)cc3)c(=O)n2C1c1cccs1 (configuration not stated)	12.7%
Cc1csc(NC(=O)c2cccnc2)n1	17.3%
O=C(C1c2ccccc2Oc2ccccc21)N1CCN(c2cccc(Cl)c2)CC1	-4%
C(=C\c1ccccc1)/CSc1nnc(-c2ccncc2)n1-c1ccccc1	-17.2%
COc1ccc(NC(=O)c2cccc(N3C(=O)c4ccc(C(=O)Nc5ccc(OC)cc5)cc4C3=O)c2)cc1	-10.8%
O=C(Nc1c(Cl)cccc1Cl)c1ccc(Cl)c(Cl)c1	-5.7%
CN(C)c1ccc(/C=C2\N=C(c3ccc4c(c3)OCO4)OC2=O)cc1	1.8%
COC(=O)C1C(c2ccccc2)N(c2ccccc2)OC1(C)O (configuration not stated)	7.7%
CC(=C\c1ccccc1)/C=C1/SC(=O)N(c2ccc(Cl)cc2)C1=O	2.3%
Cc1cc(C(F)(F)F)nn1CC(=O)Nc1ccc(OC(F)(F)F)cc1	-1.9%
Cc1ccc(/C=C2\C(=O)NC(=O)N(c3ccc(Cl)cc3)C2=O)cc1[N+](=O)[O-]	-2.2%
Cc1ccc(C2=C/C(=C\c3ccc(C)c([N+](=O)[O-])c3)C(=O)O2)cc1	9%
Oc1ccc(NC(=S)N=Nc2c(O)[nH]c3ccc(Br)cc23)cc1	11.6%
Cc1ccc(N=Cc2cccc(C)c2O)c(O)c1	4.8%
O=C(Nc1cccc2ccccc12)c1ccc(-c2cccc([N+](=O)[O-])c2)o1	12%
CCCCOC(=O)c1ccc(NC(=O)CSc2ccccn2)cc1	-19.3%
O=C(CSc1ncn(-c2ccccc2)n1)c1ccc(Cl)cc1	13.1%
COc1ccc(C(=O)N2CCN(Cc3ccc(SC)cc3)CC2)cc1	-7.7%

Structure (SMILES)	displacement
CCCC(=O)Nc1ccc(NC(=O)c2ccc(C)c([N+](=O)[O-])c2)cc1	9.9%
O=C(CCN1C(=O)/C(=C\c2cccs2)SC1=S)Nc1cccc(C(=O)O)c1	34.9%
CCOC(=O)c1ccc(NC(=O)CC)cc1	4.7%
O=C(Nc1ccc(NC(=S)NC(=O)c2ccco2)cc1)c1cccc(Cl)c1	13.6%
O=C(/C=C/c1ccccc1)Nc1ccc(Cl)cn1	16.2%
O=C(CCSCc1ccc([N+](=O)[O-])cc1)OCC(=O)c1ccccc1	-2.3%
CC1CCC(N2CCN(C(=O)c3ccc(F)cc3)CC2)CC1 (configuration not stated)	9.5%
O=C1C2C(c3ccccc3)OC3(C(=O)c4ccccc4C3=O)C2C(=O)N1c1ccc([N+](=O)[O-])cc1 (configuration not stated)	10.3%
O=C(N/N=C/c1ccc(Cl)c(Cl)c1)C1CC(=O)N(c2ccccc2)C1 (configuration not stated)	-9.3%
CCCCOc1ccc(NC(=O)CSc2nnc(C)s2)cc1	-8.6%
O=C1c2ccccc2NC(c2cccc(O)c2)N1c1ccc(Cl)cc1 (configuration not stated)	14.9%
Cc1ccc(Nc2nc(Nc3cccc([N+](=O)[O-])c3)nc(SC(=S)N3CCOCC3)n2)cc1	7.1%
Cc1ccc(C)c(-c2csc(NC(=O)c3cccs3)n2)c1	-8.9%
Cc1c(NC(=O)c2cc3nc(-c4ccc(Cl)cc4)cc(C(F)(F)F)n3n2)c(=O)n(-c2ccccc2)n1C	10.5%
COc1c(Cl)ccc(Cl)c1C(=O)NCCc1ccccc1	-18.4%
COC(=O)c1c(-c2ccc(F)cc2)csc1NC(=O)C1CC=CCC1C(=O)O (configuration not stated)	-2.9%
CCOc1ccccc1NC1=C(Cl)C(=O)N(c2ccc(Cl)cc2)C1=O	14.9%
CC(C)(C)c1ccc(/C=N/NC(=O)c2ccc(Cl)cc2O)cc1	7.3%
Cc1noc(NS(=O)(=O)c2ccc(NC(=O)c3ccc(Cl)s3)cc2)c1C	-8.8%
CCn1c2ccccc2c2cc(C=Nc3ccccc3C(N)=O)ccc21	-8.4%
O=C(Nc1c(C(=O)N2CCCC2)cnn1-c1ccccc1)c1cccc(F)c1	3.5%
CCc1ccccc1NC(=O)c1c(NC(=O)c2ccco2)sc2c1CCCC2	-0.5%

Structure (SMILES)	displacement
Cc1ccc(-c2csc(NC(=O)C3CCCCC3C(=O)O)n2)c(C)c1 (configuration not stated)	3.8%
Cn1c(=O)c2c(nc3cc(-c4ccccc4)cc(-c4ccccc4)n32)n(C)c1=O	5.9%
O=C(Nc1ncc(Cc2cccc([N+](=O)[O-])c2)s1)c1ccc(Br)cc1	13.6%
COc1cc(/C=C(\C#N)c2nc3ccc(C)cc3[nH]2)cc(OC)c1O	-65.6%
Cc1cccc(N2C(=O)Cn3c2nc2c3c(=O)n(C)c(=O)n2C)c1	-5.8%
CCCCOC(=O)c1ccc2c(c1)C1C=CCC1C(c1cccc([N+](=O)[O-])c1)N2 (configuration not stated)	-2.5%
COC(=O)CN1C(=O)C(=O)c2ccccc21	-4.5%
O=C(c1ccccc1F)N1CCN(c2cccc(Cl)c2)CC1	6.5%
Cc1ccccc1C=Nc1ccc(O)cc1	-0.9%
S=C(NCCSCc1ccccc1Cl)Nc1ccccc1	0.1%
COc1ccc(/C(N)=N/OC(=O)COc2ccccc2C)cc1	4.7%
COc1cccc(C(=O)N2CCN(C(=O)c3cccc(Cl)c3)CC2)c1	-4.6%
O=C(NCCCCNc1ccc(C(F)(F)F)cc1[N+](=O)[O-])c1ccc(Cl)cc1	-6.4%
O=C1OC(c2ccc(Br)cc2)=N/C1=C/c1ccc(Cl)cc1Cl	-5.4%
Cc1cc(C)cc(C(=O)Nc2nnc(C)s2)c1	14.6%
O=C(N/N=C/c1ccc(OC(=O)c2ccc([N+](=O)[O-])cc2)cc1)c1cccnc1	6.3%
Cc1cccc(-c2nc3cc(NC(=O)Cc4ccccc4)ccc3o2)c1	4.5%
COC(=O)c1cc(C(=O)N2CCN(Cc3ccccc3)CC2)cc([N+](=O)[O-])c1	4.8%
Cc1ccc(-c2nc(-c3cc4cc([N+](=O)[O-])cc(Br)c4oc3=O)cs2)c(C)c1	95.2%
O=C(Nc1cccc2c1CCCC2)c1cccc([N+](=O)[O-])c1	-5.1%
O=C(CSc1ncn[nH]1)Nc1ccccc1Br	-0.1%
COc1cccc(C(=O)Nc2cccc3ccccc23)c1	-9.7%

Structure (SMILES)	displacement
Cc1ccc(C(=O)NNC(=O)c2ccccc2C)cc1	-13.9%
Cc1ccc(/C(O)=C2/C(=O)C(=O)N(CCCn3ccnc3)C2c2ccc([N+](=O)[O-])cc2)cc1 (configuration not stated)	-21.4%
CC(=O)Nc1nc(C)c(-c2csc(Nc3ncccn3)n2)s1	9.9%
CC(=O)Oc1ccc(C(=O)Nc2cc(Cl)ccc2C(=O)O)cc1	-10.9%
O=C1S/C(=C\c2ccc(Br)o2)C(=O)N1c1ccc(Cl)cc1	88.9%
COc1ccc2c(c1)N(C(N)=S)C(C)(C)C=C2C	-0.3%
O=C(NC(Cc1ccc(O)cc1)C(=O)O)/C(=C/c1ccccc1)NC(=O)c1ccccc1 (configuration not stated)	14%
NS(=O)(=O)c1ccc(CNC2CC(=O)N(c3ccc(I)cc3)C2=O)cc1 (configuration not stated)	-1.7%
COC(=O)c1c(NC(=O)/C=C/C(=O)O)sc(C)c1-c1ccc(C)cc1	-2.7%
O=C(NCc1ccccc1)c1nn2c(c1Cl)NC(c1ccc(Cl)cc1)CC2C(F)(F)F (configuration not stated)	1.1%
COc1ccc(CC(=O)NNC(C)=O)cc1OC	6.6%
COc1cccc(CN2CCN(C(=O)c3ccccc3OC)CC2)c1	-15.8%
O=C(NC(Cc1ccc(OC(=O)OCc2ccccc2)cc1)C(=O)O)OCc1ccccc1 (configuration not stated)	-3.3%
O=C(Nc1nc(-c2cccc3ccccc23)cs1)c1ccc(Cl)cc1	-3.4%
O=C(/C=C/c1ccccc1Cl)c1c(-c2ccccc2)c2cc(Cl)ccc2[nH]c1=O	-1.6%
CC(=O)c1ccc(NC(=O)/C=C/c2ccc(C(C)C)cc2)cc1	-0.2%
COC(=O)C(C)Oc1ccc2c3c(c(=O)oc2c1)CCC3 (configuration not stated)	6.3%
CCn1nnnc1-c1ccc(OC)c(S(=O)(=O)Nc2ccc(Br)cc2)c1	58.3%
O=C1NC2=Nc3ccccc3SC(c3ccccc3)=C2C(c2ccc(O)cc2)N1 (configuration not stated)	27.6%
O=C1NC(=O)N(c2ccccc2F)C(=O)/C1=C/c1ccc(I)o1	34.5%
c1cc(NCc2ccc3c(c2)OCO3)cc(-c2nc3ccccc3s2)c1	-6%
CCOc1cc(/C=C2/SC(=S)N(C)C2=O)cc(Cl)c1OCCOc1ccccc1C	2.3%

Structure (SMILES)	displacement
COc1cccc(OC)c1C(=O)Nc1sc(C)c(C)c1C(N)=O	10.1%
Cc1ccc(OCC(=O)Nc2ccc3oc(-c4ccc(F)cc4)nc3c2)cc1C	-21%
Cc1cccc(Cn2cc(/C=C(\C#N)C(=O)Nc3ccc(F)cc3)c3ccccc32)c1	8%
COC(=O)C1=NN(C(=O)c2ccccc2)C(O)(C(C)(C)C)C1 (configuration not stated)	-3.6%
COc1ccc(OC)c2c(C)cc(C)nc12	3.3%
CN(C)CCCN1C(=O)CSC1c1ccc(Cl)cc1 (configuration not stated)	0%
COc1ccc(N2C(=O)C3C4C=CC(C4)C3C2=O)cc1 (configuration not stated)	-0.8%
Oc1ccc(Br)cc1/C=N/Nc1cc(N2CCCC2)nc(N2CCCC2)n1	37.5%
O=C(c1ccc(Cl)c(Cl)c1)N1CCN(c2ccc([N+](=O)[O-])c(N3CCOCC3)c2)CC1	8.5%
COC(=O)C1=C(C)N=c2s/c(=C\c3ccccc3F)c(=O)n2C1c1ccc(OC)cc1 (configuration not stated)	19.7%
CCC(C)(C)C1CCc2[nH]nc(C(=O)NN)c2C1 (configuration not stated)	-12%
CC(C)C(=O)Nc1ccc(NC(=O)c2ccco2)cc1	-8.5%
O=c1oc2cc(O)c([N+](=O)[O-])cc2cc1-c1csc(-c2ccc(Br)cc2)n1	-17.4%
CC(C)(C)c1cc(C(=O)N/N=C\c2ccncc2)n[nH]1	1.4%
CCOC(=O)C1=C(C)N=C2SCC(=O)N2C1c1cccc(OC)c1OC (configuration not stated)	-5.2%
Nn1cnnc1N/N=C/C=C/c1ccccc1	-7.2%
COc1cccc2sc(NC(=O)c3cccc(Cl)c3)nc12	13.2%
CCc1nnc(NS(=O)(=O)c2ccc(NS(=O)(=O)c3ccccc3)cc2)s1	14.1%
O=C(Nc1ccc(F)c([N+](=O)[O-])c1)c1ccc2c(c1)OCCO2	11.2%
